Sequences with one replicate were seen in a single cluster, so their values are uncertain.
Each sequence was assayed on ATP (assay: switch fluorescence ratio, 500 uM ATP over buffer (Cy3 cluster intensity, sum of 5 cycles each) (fold (ratio)); higher = stronger signal-on switching upon ATP binding; sequences stand for … in TCGTCGGCAGCGTCAGATGTGTATAAGAGACAGTTTTTTTTTTTTTTTTTTTTTTTTT…TC). Settings: aptamer strand: ATP DNA aptamer (quencher-CACCTGGGGGAGTATTGCGGAGGAAGG + anchor), 100 nM annealed; ATP concentration: 500 uM; one replicate.
Method in brief: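 Clusters with intensities outside 100-1000 RFU were excluded. The remaining Cy3-labelled switching-strand clusters on a modified Illumina MiSeq flow-cell had been annealed to 100 nM quencher-labelled ATP aptamer and imaged in selection buffer, then after 15 min with 500 uM ATP at 22 °C, for five cycles separated by NaOH stripping and re-annealing. The fluorescence ratio, averaged per switch-domain sequence, is each cluster's summed target-cycle Cy3 intensity over its summed buffer-cycle Cy3 intensity.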
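Note: ATP exposure 15 min at 22 °C before imaging.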

Sequence | switch fluorescence ratio
ATATTTAAAG | 1.01
ATATTTTACT | 1.02
ATATTTTAGA | 1.04
ATCAAAAGTT | 1.08
ATCAAACTTA | 1.01
ATCAAAGTAA | 1
ATCAAATGAG | 0.991
ATCAAGAAAC | 1.04
ATCAAGAAGT | 1.01
ATCAATCCCC | 1.07
ATCAATTTTT | 0.982
ATCACAGA | 1.01
ATCACATTTC | 0.976
ATCACGCTTA | 1.22
ATCACGGCG | 1
ATCACGTACG | 1.78
ATCAGAAAAG | 0.984
ATCAGAATAA | 1.04
ATCAGAGAAG | 0.995
ATCAGAGATG | 0.994
ATCAGCATCT | 1.08
ATCAGCGCTG | 1.01
ATCAGCTAAA | 0.977
ATCAGCTTTT | 1.01
ATCAGGCGCG | 1.01
ATCAGGCTAC | 1.07

Sequence | switch fluorescence ratio
ATCAGGCTTG | 0.989
ATCAGGGG | 1.2
ATCAGTACGG | 1.04
ATCATAACAT | 1.01
ATCATAGCCC | 1.04
ATCATAGTGT | 0.98
ATCATATGAC | 1
ATCATATTGT | 0.998
ATCATCATG | 0.957
ATCATCGTGG | 0.992
ATCATTGCG | 0.992
ATCCACGTTC | 1.05
ATCCATACG | 1.02
ATCCCAAAGA | 0.978
ATCCCGATGT | 1.05
ATCCCGGCCG | 0.983
ATCCGAAGTA | 1.16
ATCCGAGCCT | 1.16
ATCCGCCACA | 1.72
ATCCGCTAAA | 4.09
ATCCGCTAAG | 2.82
ATCCGGATGA | 0.978
ATCCGGGGAC | 1.97
ATCCGTTTGC | 1.44
ATCCTAATGT | 1.03
ATCCTGCAGA | 1.04

Sequence | switch fluorescence ratio
ATCCTGTATG | 0.989
ATCCTGTGCG | 1.03
ATCCTTTGCG | 1.02
ATCGAAAGCC | 1.03
ATCGAACCGA | 1.05
ATCGAACTCT | 1.01
ATCGAGGAGC | 1
ATCGAGGATC | 0.962
ATCGAGGTAA | 1.03
ATCGATCTGT | 0.987
ATCGATGTCC | 1.05
ATCGCCC | 1
ATCGCTAATA | 1.2
ATCGCTAGTC | 1.06
ATCGCTGCCG | 0.966
ATCGGACTGC | 1.24
ATCGGACTGT | 0.988
ATCGGATGTG | 0.905
ATCGGCGTTT | 0.997
ATCGGCTTGG | 0.95
ATCGGGAC | 0.982
ATCGGGCTCG | 1.04
ATCGGGGTTT | 1.02
ATCGGTAGCA | 1.03
ATCGGTGCCT | 1
ATCGGTGTA | 0.987

Sequence | switch fluorescence ratio
ATCGTCCGAA | 1.07
ATCGTGGCTA | 0.975
ATCGTGTCTA | 0.982
ATCGTTAGTC | 0.94
ATCGTTCTCG | 1.02
ATCGTTGCCC | 1
ATCTAACATG | 0.966
ATCTAACTTC | 0.991
ATCTAAGGGC | 1.03
ATCTAAGT | 0.976
ATCTACCGGG | 1.01
ATCTAGCTAG | 0.978
ATCTAGGTAA | 1.01
ATCTCAATCG | 1.02
ATCTCACGGC | 1.06
ATCTCCAACG | 1.05
ATCTCGACGG | 1.02
ATCTGACGCA | 5.03
ATCTGATGG | 1.1
ATCTGATGT | 1.03
ATCTGCCGTA | 1
ATCTGCTGCT | 1.01
ATCTGCTGGA | 1.01
